# From publication PMC4336329 (PLoS ONE, 2015)
# Hit rate of the full screen: of about 310,000 compounds, about 14,000 (4.5%) showed an effect of 50% or more. The effect is printed as a negative number. This is one part of the list.
# Molecular target: human ether-à-go-go-related gene (hERG) potassium channel (human, UniProt Q12809)
# Test: primary screen, population patch clamp on CHO cells stably expressing hERG
# 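Also: peak tail current of the secondary pulse compared with the same well before compound.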
# Chain of human ether-à-go-go-related gene (hERG) potassium channel (Q12809 whole entry, looked up): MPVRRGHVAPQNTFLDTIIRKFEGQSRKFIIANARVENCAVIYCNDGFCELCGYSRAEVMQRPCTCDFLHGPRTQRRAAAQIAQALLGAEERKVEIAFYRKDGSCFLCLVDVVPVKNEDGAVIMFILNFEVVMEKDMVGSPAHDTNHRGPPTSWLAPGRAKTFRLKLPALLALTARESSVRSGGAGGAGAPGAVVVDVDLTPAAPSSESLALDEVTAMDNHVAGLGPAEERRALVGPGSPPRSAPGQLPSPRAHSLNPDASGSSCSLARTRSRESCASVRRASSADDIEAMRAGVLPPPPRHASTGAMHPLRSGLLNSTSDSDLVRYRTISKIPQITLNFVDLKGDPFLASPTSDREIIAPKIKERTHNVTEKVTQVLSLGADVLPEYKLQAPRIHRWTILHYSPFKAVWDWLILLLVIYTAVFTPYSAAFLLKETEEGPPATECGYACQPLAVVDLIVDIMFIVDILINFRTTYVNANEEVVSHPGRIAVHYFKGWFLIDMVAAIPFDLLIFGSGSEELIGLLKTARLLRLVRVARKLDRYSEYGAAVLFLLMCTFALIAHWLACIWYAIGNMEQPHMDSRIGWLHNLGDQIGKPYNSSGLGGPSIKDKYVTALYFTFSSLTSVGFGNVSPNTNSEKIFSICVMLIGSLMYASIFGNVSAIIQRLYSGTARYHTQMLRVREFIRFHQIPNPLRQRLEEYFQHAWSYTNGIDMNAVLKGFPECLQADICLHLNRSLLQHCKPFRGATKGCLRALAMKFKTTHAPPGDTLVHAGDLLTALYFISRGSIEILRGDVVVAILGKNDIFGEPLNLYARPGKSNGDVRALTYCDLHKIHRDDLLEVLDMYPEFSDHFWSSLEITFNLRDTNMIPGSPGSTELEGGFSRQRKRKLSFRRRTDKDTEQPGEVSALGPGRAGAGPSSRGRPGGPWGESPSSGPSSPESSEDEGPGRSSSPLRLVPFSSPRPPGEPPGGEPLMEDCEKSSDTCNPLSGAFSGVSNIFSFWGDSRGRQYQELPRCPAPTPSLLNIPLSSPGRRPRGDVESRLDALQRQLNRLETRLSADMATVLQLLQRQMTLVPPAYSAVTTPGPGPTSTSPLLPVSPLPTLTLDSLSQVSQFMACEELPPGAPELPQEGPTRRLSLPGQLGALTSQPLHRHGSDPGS
row,Compound,"hERG current change (%, negative = inhibition) at 10uM"
1,CC(C)CCN1CCN(Cc2nc3ccccc3s2)CC1CCO (stereo not drawn),-41.4%
2,O=C(c1ccc2c(c1)OCO2)C1CCCN(Cc2cccc(C(F)(F)F)c2)C1 (stereo not drawn),-20.5%
3,CCC(C)(C)NC(=O)C(c1ccncc1)N(C(=O)Cn1nnc2ccccc21)c1cc2c(cc1C(C)=O)OCO2 (stereo not drawn),-3.25%
4,COc1ccc(C2C3=C(CC(C)(C)CC3=O)N(CCN3CCOCC3)C3=C2C(=O)CC(C)(C)C3)cc1,-20.8%
5,CN(C(=O)C1CCCN(S(=O)(=O)c2cccc([N+](=O)[O-])c2)C1)C1CCS(=O)(=O)C1 (stereo not drawn),5.85%
6,O=C(CSc1nnc(CNC(=O)c2ccc(F)cc2)o1)Nc1nccs1,-4.96%
7,COc1ccccc1CN1CCCCC1c1cccnc1 (stereo not drawn),-1.23%
8,O=C(Cc1ccc(-c2ccccc2)cc1)N1CCOCC1,-3.74%
9,C=CCN1C(=O)c2ccc(C(=O)N3CCN(S(=O)(=O)c4cccc(F)c4)CC3)cc2C1=O,-62.7%
10,CCOCCCn1c(SCC(=O)Nc2cc(OC)ccc2OC)nc2ccccc2c1=O,-55.7%
11,CC(NC(=O)Cc1ccccc1)c1ccc(F)cc1 (stereo not drawn),27.3%
12,COc1ccc(C(=O)NNC(=O)CSc2ccccc2)cc1,5.71%
13,Cc1cc(=O)n2[nH]c(Nc3cccc(Cl)c3)nc2n1,21.2%
14,CCCc1cc(=O)oc2c(CN3CCN(C)CC3)c(O)c(Cl)cc12,-10.3%
15,CC(C)[C@H](NC(=O)c1ccc(Br)cc1)C(=O)NC1CCCCC1,1.97%
16,COc1cccc(N2CCN(C(=O)c3cccnc3)CC2)c1,11.2%
17,COC(=O)C1=C(C)NC2=C(C(=O)CCC2)C1c1ccc(-c2ccsc2C(=O)OC)o1 (stereo not drawn),1.84%
18,CC(C(=O)Nc1ccc(F)cc1Cl)N1CCN(S(=O)(=O)c2cccs2)CC1 (stereo not drawn),-10.7%
19,Cc1ccccc1C(=O)N1CCC(C(=O)N(CC(C)C)c2c(N)n(CC(C)C)c(=O)[nH]c2=O)CC1,5.62%
20,O=C(Nc1ccc(Cc2ccncc2)cc1)c1ccc([N+](=O)[O-])o1,-24.4%
21,Cc1ccc(S(=O)(=O)CC2CSc3nc(N)cc(=O)n32)cc1 (stereo not drawn),2.97%
22,COc1cc2c(cc1OC)CN(C(=O)c1ccc(OC)c(S(=O)(=O)N3CCOCC3)c1)CC2,3.03%

row,Compound,"hERG current change (%, negative = inhibition) at 10uM"
1,COC(=O)c1nnn(-c2nonc2N)c1CSc1nnc(C)s1,-1.84%
2,CC(C)Cc1nc(SCC(=O)N2CCCC2)c2c(=O)n(C)c(=O)n(C)c2n1,-31.3%
3,O=C(NCc1cccnc1)/C(=C/c1ccccc1)NC(=O)c1ccccc1,-34.5%
4,CSc1ncccc1C(=O)OCC(=O)c1cc2ccccc2o1,5.26%
5,O=C(Cn1ccc(NC(=O)OCc2ccccc2)nc1=O)NCCc1ccccn1,5.97%
6,Cc1nn(CC(=O)NCCN2CCOCC2)c(=O)c2ccccc12,22.9%
7,CC(C)Cn1c(-c2csc3c2CCCC3)n[nH]c1=S,8.85%
8,COC(=O)[C@@]1(Cc2ccc(F)cc2)[C@H]2c3cc(C(=O)N4CCCC4)n(CCc4ccc(O)c(O)c4)c3C[C@H]2CN1C(=O)c1ccccc1,-15.5%
9,CN(C)S(=O)(=O)c1cccc(NC(=O)c2ccc(OC(F)(F)F)cc2)c1,-27.8%
10,O=C(Nn1cc(C(=O)N2CCN(c3ccccc3F)CC2)c2ccccc2c1=O)c1cnccn1,2.84%
11,Cc1c(-c2ccnc3cc(C(=O)O)nn23)cnn1C,9.17%
12,Cc1noc(NC(=O)c2ccccc2C(F)(F)F)c1C#N,-46%
13,O=C(C1CCN(S(=O)(=O)Cc2ccccc2)CC1)N1CCN(c2ncccn2)CC1,-2.53%
14,COc1ccc(NC(=O)c2c(Cl)n(C)c3ccccc23)cc1,4.91%
15,O=c1cc(-c2ccc(O)c(O)c2)oc2c1ccc1ccccc12,6.87%
16,Cc1onc(-c2ccccc2)c1C(=O)N/N=C/c1ccc([N+](=O)[O-])c(O)c1,10.1%
17,S=c1[nH]nc(-c2ccncc2)n1Cc1ccco1,20.8%
18,CC1CCCCN1C(=O)Nc1ccccc1Cl (stereo not drawn),0.388%
19,CCN1C(=O)[C@@H]2[C@@H](c3ccc(-c4ccc5c(c4)OCO5)c(OC)c3)N3CCC[C@@]3(C(=O)OC)[C@@H]2C1=O.O=C(O)C(F)(F)F,-46%
20,Cl.O=C(NC1=NCCS1)c1cc(-c2cccnc2)nc2ccccc12,5.99%
21,O=S(=O)(c1cccc(-c2n[nH]c(=S)o2)c1)N1CCOCC1,14.9%
22,COCCCNC(=O)Cn1ncc2ccsc2c1=O,13.6%

row,Compound,"hERG current change (%, negative = inhibition) at 10uM"
1,CC(C)CC(=O)N1CCC(O)(CS(=O)(=O)c2ccc(Cl)c(Cl)c2)CC1,-7.39%
2,Cc1cnc2c(C(=O)O)cnn2c1,20.2%
3,Cc1cc(O)ccc1Nc1nc(-c2cccs2)cs1,-3.9%
4,COc1ccc2[nH]c(=O)c(CN(Cc3nnnn3Cc3ccccc3)CC3CCCO3)cc2c1 (stereo not drawn),-15.8%
5,CCC(OC(=O)c1cccs1)C(=O)NC1CCCCC1 (stereo not drawn),-8.49%
6,Cc1cccc(/C=N/NC(=O)Cn2nnnc2N)n1,2.15%
7,Cc1ccc(S(=O)(=O)NCc2cn3c(C)csc3n2)cc1,-2.8%
8,COc1ccccc1NC(=O)CSc1nnc(Cc2cccn2C)n1-c1ccc(F)cc1,-30.5%
9,CCCc1nnc(NC(=O)CCCN2C(=O)c3ccccc3C2=O)s1,2%
10,CN(C)Cc1nc2ccccc2c(=O)n1Cc1nc(C(C)(C)C)cs1,-23.1%
11,O=C(NCCCN1CCOCC1)c1ccc(CNS(=O)(=O)c2ccc(F)cc2)cc1,10.7%
12,O=C(c1sc2cc(Cl)ccc2c1Cl)N1CCN(CCc2ccccn2)CC1,-69.6%
13,Cc1cc(N2C(=O)CCC2=O)n(-c2ccccc2)n1,-24.1%
14,CCc1nnc(NS(=O)(=O)c2ccc(NS(=O)(=O)c3ccccc3)cc2)s1,-2.17%
15,C=CCn1c(SCC(C)=O)nnc1-c1ccc2ncccc2c1,19%
16,Cc1csc2nc(COC(=O)c3cccc(N(C)C)c3)cc(=O)n12,-32.5%
17,CCOC(=O)c1nnc(-c2ccccc2)nc1NCc1ccccc1,-16.5%
18,O=C(Nc1ccc(O)c(C(=O)O)c1)Oc1ccccc1,19.5%
19,N#Cc1c(N)nc(N2CCCC2)c(C#N)c1-c1ccc(Cl)cc1,1.35%
20,CC(C)C(=O)Nc1cccc(C(=O)Nc2nnc(C(C)(C)C)s2)c1,-15.2%
21,CC(C(=O)N1CCCCC1)N1CCN(S(=O)(=O)c2ccc(Cl)cc2)CC1.O=C(O)C(=O)O (stereo not drawn),-14.1%
22,CCOC(=O)c1ccc(NC(=O)c2nn(C)cc2Br)cc1,7.53%

row,Compound,"hERG current change (%, negative = inhibition) at 10uM"
1,CCOC(=O)N1CCN(CCc2ccccc2)CC1,-6.3%
2,O=C(COc1ccc(F)cc1)NCC1(N2CCOCC2)CCCCC1,-27.9%
3,COc1ccc(OC)c(/C=N/N=C(\N)c2nonc2N)c1,-16.5%
4,CCc1nn(C(CC)C(=O)NCCCN2CC(C)CC(C)C2)c(=O)c2cc3oc(C)cc3n12 (stereo not drawn),-37.6%
5,CN(C(=O)CSc1nc2ccccc2[nH]1)C1CCS(=O)(=O)C1 (stereo not drawn),15.7%
6,COc1ccccc1C(=O)COC(=O)CN1C(=O)C2CC=CCC2C1=O (stereo not drawn),26.3%
7,CCOc1ccc(C2NC(=O)C(C#N)=C(S)N2c2cccc(C)c2)cc1OC (stereo not drawn),22.9%
8,CSc1nc2cc(C)nn2c(-c2ccccc2)c1C#N,10.4%
9,O=c1cc(-c2ccc(O)cc2)oc2c(C3OCC(O)C(O)C3O)c(O)c(C3OC(CO)C(O)C(O)C3O)c(O)c12 (stereo not drawn),9.99%
10,CC1=NN(c2ccccc2)C(=O)/C1=C/c1cccs1,-2.14%
11,CCOc1cccc(OCCCCN2CCOCC2)c1,-7.03%
12,CCNS(=O)(=O)c1ccc(CCC(=O)NCc2ccccn2)cc1,13.5%
13,O=S(=O)(Nc1cccnc1)c1ccc2c(c1)OCCO2,28.7%
14,CCNC(=O)NC(=O)C(C)OC(=O)c1ccc(SC)cc1OC (stereo not drawn),1.36%
15,O=C(c1cccc(F)c1)N1CCN(c2cccc(Cl)c2)CC1,-16%
16,CCC(C)(C)C1CCC2(CC1)NC(=O)N(CC(=O)NCCOc1ccccc1)C2=O (stereo not drawn),-4.15%
17,Cc1cnc(C(=O)OCC(=O)Nc2ccc(C)c(S(=O)(=O)N(C)C)c2)cn1,10%
18,CCCCC(=O)Nc1cccc(NC(=S)NC(=O)C(C)C)c1,3.44%
19,CCOC(=O)c1cccc(NC(=O)CN(c2ccc(OC)cc2)S(=O)(=O)c2c(C)noc2C)c1,-10.5%
20,CC(=O)c1cccc(NC(=S)Nc2ccn(Cc3cccc4ccccc34)n2)c1,-10.4%
21,COc1ccccc1CN(C(=O)CNC(=O)c1ccco1)C(C(=O)NCC1CCCO1)c1ccccc1 (stereo not drawn),10%
